{"source": "paper PMC4336329", "about": "(PLoS ONE, 2015)", "note": "Among all 310,000 compounds or so, about 2,200 (0.71%) showed an effect of 50% or more. Effects have a minus sign here. Some of the results follow."}
{"biological_target": "human ether-à-go-go-related gene (hERG) potassium channel (human, UniProt Q12809)", "sequence (Q12809 whole entry, looked up)": "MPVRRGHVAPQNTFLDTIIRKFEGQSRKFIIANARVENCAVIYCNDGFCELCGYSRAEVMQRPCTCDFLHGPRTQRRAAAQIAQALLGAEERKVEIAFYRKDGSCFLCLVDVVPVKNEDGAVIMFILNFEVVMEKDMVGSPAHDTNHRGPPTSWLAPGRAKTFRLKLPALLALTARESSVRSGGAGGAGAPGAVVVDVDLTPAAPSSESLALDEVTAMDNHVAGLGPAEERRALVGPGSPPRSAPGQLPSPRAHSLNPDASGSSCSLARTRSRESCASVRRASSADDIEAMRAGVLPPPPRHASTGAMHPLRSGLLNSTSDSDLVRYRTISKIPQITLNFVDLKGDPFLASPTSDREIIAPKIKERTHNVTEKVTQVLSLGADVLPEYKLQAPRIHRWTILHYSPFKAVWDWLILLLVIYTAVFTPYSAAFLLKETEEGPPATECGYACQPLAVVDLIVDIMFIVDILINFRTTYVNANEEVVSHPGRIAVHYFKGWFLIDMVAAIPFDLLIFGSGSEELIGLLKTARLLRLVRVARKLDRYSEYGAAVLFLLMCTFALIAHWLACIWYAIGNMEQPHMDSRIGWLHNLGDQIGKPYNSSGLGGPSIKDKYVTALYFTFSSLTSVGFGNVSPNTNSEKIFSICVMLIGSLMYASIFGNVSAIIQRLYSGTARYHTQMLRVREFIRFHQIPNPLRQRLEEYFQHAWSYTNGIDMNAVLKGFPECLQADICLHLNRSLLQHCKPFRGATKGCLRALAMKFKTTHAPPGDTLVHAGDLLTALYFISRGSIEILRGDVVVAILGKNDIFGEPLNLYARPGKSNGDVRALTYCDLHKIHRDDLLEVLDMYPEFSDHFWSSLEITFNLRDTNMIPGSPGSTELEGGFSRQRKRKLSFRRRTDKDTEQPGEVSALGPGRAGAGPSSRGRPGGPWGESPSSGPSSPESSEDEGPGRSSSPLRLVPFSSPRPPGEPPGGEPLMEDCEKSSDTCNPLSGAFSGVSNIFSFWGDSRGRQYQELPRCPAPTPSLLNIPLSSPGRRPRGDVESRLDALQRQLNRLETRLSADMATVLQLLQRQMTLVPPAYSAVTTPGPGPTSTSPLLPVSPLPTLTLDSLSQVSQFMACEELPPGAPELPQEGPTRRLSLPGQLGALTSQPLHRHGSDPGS", "test": "primary screen, population patch clamp on CHO cells stably expressing hERG", "units": {"hERG current change (%, negative = inhibition) at 1uM": "%"}}
{"molecule": "O=C(Nc1ccc(Cl)cc1Cl)C1CCCO1", "note": "(stereo not drawn)", "hERG current change (%, negative = inhibition) at 1uM": 8.56}
{"molecule": "N#CCCn1cc(/C=C2\\NC(=S)N(c3ccccc3)C2=O)c(-c2ccc(-c3ccccc3)cc2)n1", "hERG current change (%, negative = inhibition) at 1uM": 0.455}
{"molecule": "CCC(NC(=S)NCc1ccc(F)cc1)c1ccc(C)cc1", "note": "(stereo not drawn)", "hERG current change (%, negative = inhibition) at 1uM": 13}
{"molecule": "Cc1ccc(-n2c(O)c(C=Nc3ccc(S(=O)(=O)Nc4ncccn4)cc3)c3ccccc3c2=O)cc1C", "hERG current change (%, negative = inhibition) at 1uM": -2.78}
{"molecule": "Cc1ccc(Cn2c(Sc3nccc(C)n3)nc3c2c(=O)[nH]c(=O)n3C)cc1", "hERG current change (%, negative = inhibition) at 1uM": -0.0278}
{"molecule": "COc1ccc(Br)cc1CN(C)C(=O)c1cnc(C)cn1", "hERG current change (%, negative = inhibition) at 1uM": 13.8}
{"molecule": "O=C(CCS(=O)(=O)c1ccc(Br)s1)N1CCc2ccccc21", "hERG current change (%, negative = inhibition) at 1uM": -2.3}
{"molecule": "CCCC1(c2ccccc2)NC(=O)N(C/C=C/Cl)C1=O", "note": "(stereo not drawn)", "hERG current change (%, negative = inhibition) at 1uM": 3.83}
{"molecule": "Cc1cc(NC(=O)C(C)Sc2nc(-c3ccccc3)cc(=O)[nH]2)no1", "note": "(stereo not drawn)", "hERG current change (%, negative = inhibition) at 1uM": 9.1}
{"molecule": "Cc1cc(=O)oc2cc(Oc3ccc([N+](=O)[O-])cc3C(F)(F)F)ccc12", "hERG current change (%, negative = inhibition) at 1uM": 8.37}
{"molecule": "NC(=O)c1ccsc1NC(=O)COC(=O)CNC(=O)c1ccc(F)cc1", "hERG current change (%, negative = inhibition) at 1uM": 5.75}
{"molecule": "O=C(Nc1ccccc1)c1ccccc1C(=O)N1CCCCC1", "hERG current change (%, negative = inhibition) at 1uM": 10.6}
{"molecule": "COc1ccc(C(CNC(=O)CCc2ccsc2)N(C)C)cc1", "note": "(stereo not drawn)", "hERG current change (%, negative = inhibition) at 1uM": 6.89}
{"molecule": "CCCCn1c(N)c(N(CCOC)C(=O)c2ccc(Br)s2)c(=O)[nH]c1=O", "hERG current change (%, negative = inhibition) at 1uM": -0.131}
{"molecule": "S=C(N/N=C/c1ccc(Br)cc1)N1CCCCC1", "hERG current change (%, negative = inhibition) at 1uM": 10.9}
{"molecule": "O=C(Cc1ccc(Cl)cc1)Nc1ccc(S(=O)(=O)N2CCOCC2)cc1", "hERG current change (%, negative = inhibition) at 1uM": 5.41}
{"molecule": "O=C(OC(C(=O)NCc1ccc(F)cc1)c1ccccc1)c1ccco1", "note": "(stereo not drawn)", "hERG current change (%, negative = inhibition) at 1uM": 13.8}
{"molecule": "O=C(c1ccc([N+](=O)[O-])cc1)N(Cc1ccc(Cl)cc1Cl)N1C(=O)CCCC1=O", "hERG current change (%, negative = inhibition) at 1uM": 5.67}
{"molecule": "Cc1ccc(-n2c(SCC(=O)N3CCOCC3)nnc2-c2ccncc2)cc1", "hERG current change (%, negative = inhibition) at 1uM": 13.9}
{"molecule": "COc1ccc(CCNC(=O)c2cccc(Br)c2)cc1OC", "hERG current change (%, negative = inhibition) at 1uM": 13.3}
{"molecule": "Cc1onc(-c2c(Cl)cccc2Cl)c1C(=O)N1CCc2ccccc2C1", "hERG current change (%, negative = inhibition) at 1uM": 16.6}
{"molecule": "O=C1[C@H]2CC3C=CC2(O3)[C@@H]2OCCCN12", "note": "(stereo partly drawn)", "hERG current change (%, negative = inhibition) at 1uM": 2.77}
{"molecule": "CC1Cc2ccccc2N1CC(=O)NC(=O)NCc1ccco1", "note": "(stereo not drawn)", "hERG current change (%, negative = inhibition) at 1uM": 1.95}
{"molecule": "CCOC(=O)CN(C(=O)CSc1nnc(CNc2ccc(F)cc2)n1C)c1ccccc1", "hERG current change (%, negative = inhibition) at 1uM": -9.59}
